In doi:10.1101/2025.02.03.636340 (bioRxiv, 2025):

Target: the molecule itself
Assay: SiMPull with photobleaching step analysis

B1: HA-SNAP-mGluR5 (human metabotropic glutamate receptor 5) (receptor)
chain: QSSERRVVAHMPGDIIIGALFSVHHQPTVDKVHERKCGAVREQYGIQRVEAMLHTLERINSDPTLLPNITLGCEIRDSCWHSAVALEQSIEFIRDSLISSEEEEGLVRCVDGSSSSFRSKKPIVGVIGPGSSSVAIQVQNLLQLFNIPQIAYSATSMDLSDKTLFKYFMRVVPSDAQQARAMVDIVKRYNWTYVSAVHTEGNYGESGMEAFKDMSAKEGICIAHSYKIYSNAGEQSFDKLLKKLTSHLPKARVVACFCEGMTVRGLLMAMRRLGLAGEFLLLGSDGWADRYDVTDGYQREAVGGITIKLQSPDVKWFDDYYLKLRPETNHRNPWFQEFWQHRFQCRLEGFPQENSKYNKTCNSSLTLKTHHVQDSKMGFVINAIYSMAYGLHNMQMSLCPGYAGLCDAMKPIDGRKLLESLMKTNFTGVSGDTILFDENGDSPGRYEIMNFKEMGKDYFDYINVGSWDNGELKMDDDEVWSKKSNIIRSVCSEPCEKGQIKVIRKGEVSCCWTCTPCKENEYVFDEYTCKACQLGSWPTDDLTGCDLIPVQYLRWGDPEPIAAVVFACLGLLATLFVTVVFIIYRDTPVVKSSSRELCYIILAGICLGYLCTFCLIAKPKQIYCYLQRIGIGLSPAMSYSALVTKTNRIARILAGSKKKICTKKPRFMSACAQLVIAFILICIQLGIIVALFIMEPPDIMHDYPSIREVYLICNTTNLGVVTPLGYNGLLILSCTFYAFKTRNVPANFNEAKYIAFTMYTTCIIWLAFVPIYFGSNYKIITMCFSVSLSATVALGCMFVPKVYIILAKPERNVRSAFTTSTVVRMHVGDGKSSSAASRSSSLVNLWKRRGSSGETLRYKDRRLAQHKSEIECFTPKGSMGNGGRATMSSSNGKSVTWAQNEKSSRGQHLWQRLSIHINKKENPNQTAVIKPFPKSTESRGLGAGAGAGGSAGGVGATGGAGCAGAGPGGPESPDAGPKALYDVAEAEEHFPAPARPRSPSPISTLSHRAGSASRTDDDVPSLHSEPVARSSSSQGSLMEQISSVVTRFTANISELNSMMLSTAAPSPGVGAPLCSSYLIPKEIQLPTTMTTFAEIQPLPAIEVTGGAQPAAGAQAAGDAARESPAAGPEAAAAKPDLEELVALTPPSPFRDSVDSGSTTPNSPVSESALCIPSSPKYDTLIIRDYTQSSSSL
modifications: SNAP tag labelled with SBG-JF646
stoichiometry N: 2
